Measured values as given in paper PMC12136788.
The other results are listed elsewhere or left out.

B1: chr10:117282838:117282939:-|3pUTR|ENSG00000165650|unk|FALSE|bound_elsewhere (ssRNA)
RNA: GGGAGUUCUACAGUCCGACGAUCCCCCUUGUGUUAUUUUUCUUCCUCUUGGUUUUUGAAUUAGUGUUAAAUAGAAUACUGUCUAGAUUCUUAAAAUAUUUUCAUUUCCAUCAUGGUUAUAACAAAUUUGCUGCAUGCCCAAACCAACAGAGGAUUGAGCAUCA
B2: ENSG00000070961:be:win_4051|3pUTR|ENSG00000070961|bound_else_gene|NA|bound_elsewhere_windowed (ssRNA)
RNA: GGGAGUUCUACAGUCCGACGAUCAUUUCUGCUGUUGGCUGUUAAUAAUUUGGAUUAUUUAUGUUUAUAAAUGAUACAGAUCUGUUUACAAGGUUUGUAGAUACUUUUUUUGUUCCUGUUCAUAGAUGGGAAGCUUCCUUAUAACAACAGAGGAUUGAGCAUCA
B3: chr14:67647084:67651481:-|three_prime_utr|ENSG00000100568|control|control|control (ssRNA)
RNA: GGGAGUUCUACAGUCCGACGAUCGCUCGCCAUCCUGGGAGGCCUGGUUUACUACAAAUUCUUUCGCAGCCAUUGAACUUCUAUAGGGAAGGGUUUGUGGACCAGAACUUUGACCUUGUGAAUGCAUGAUGUUAGGGAUGUGGACAACAGAGGAUUGAGCAUCA
B4: ENSG00000070961:be:win_51|CDS|ENSG00000070961|bound_else_gene|NA|bound_elsewhere_windowed (ssRNA)
RNA: GGGAGUUCUACAGUCCGACGAUCUUUGAAGGAAGCUAAUCAUGAUGGAGACUUUGGAAUUACGCUCGCAGAGCUGCGGGCUCUCAUGGAGCUCAGGUCCACAGAUGCAUUACGAAAAAUACAGGAAAGCUAUGGAGAUGUCUACAACAGAGGAUUGAGCAUCA
B5: ENSG00000132661:stop:overlap|stop_codon|ENSG00000132661|stop_codon|NA|stop_codon (ssRNA)
RNA: GGGAGUUCUACAGUCCGACGAUCCCAGCAACACAGUGUGGAAGAUCGCAAGUGACUGCUUCCGCUUCCAGGACUGGGCCAGCUAGUGGGGGUGGCAGAGGUCUCUUUGCUUCAUUCAGCCCUAGCUCUGUAGAGAAAUGCAAACAACAGAGGAUUGAGCAUCA
B6: chr1:64777895:64778004:+|CDS|ENSG00000162437|unk|FALSE|bound_elsewhere (ssRNA)
RNA: GGGAGUUCUACAGUCCGACGAUCGGAUUUGUGGAAUACAUGAAAAAGGACUUUGCUGCAAAGGCUAGACUGGAGCUAUUGGGUAGACAGUUGGGAGCAUCAGCACUCUUUGCACAAUGGAUGGAUGUUAAUCUAUUGGCUUCACAACAGAGGAUUGAGCAUCA
B7: chr9:134030564:134030586:-|3pUTR|ENSG00000169925|msi1_unk|total|mutant (ssRNA)
RNA: GGGAGUUCUACAGUCCGACGAUCCCUCUGACAGUCUUUUGGGAAAGAGUAACACCCACAUACAGAAUUUGUCACAUCCAGAGCCGCACUGUUCCUUAAUACUGGCAUAAUGCUUCCAGGAAGUUUUUCUUUUUUAUAUUUAAACAACAGAGGAUUGAGCAUCA
B8: chr1:150960872:150960973:+|CDS|ENSG00000143379|unk|FALSE|unique (ssRNA)
RNA: GGGAGUUCUACAGUCCGACGAUCGGACUCCCACCCCCCAGAUCUUGGACCCCCACAUAUUCCUGUUCCUCCCUCAAUCCCUGUAGGUGGCUGCAAUCCACCUUCCUCCGAAGAGACACCCAAGAACAAGGUGGCCUCAUGGUUCAACAGAGGAUUGAGCAUCA
B9: chr4:56461171:56461272:+|3pUTR|ENSG00000128050|msi1|FALSE|bound_elsewhere (ssRNA)
RNA: GGGAGUUCUACAGUCCGACGAUCCUUCUGUAACCACAGUGACUACAAGUAGUUCUUUCUCUAUUGAAUUAUUAGGUCCAGAAUAGAAGAUGUCAUUGUACACUUUAUUUCCCUCACACUGUGUUAUGCUCUGAUGUGCUAUGCCAACAGAGGAUUGAGCAUCA
B10: chr6:143501988:143502101:-|CDS|ENSG00000001036|unk|FALSE|unique (ssRNA)
RNA: GGGAGUUCUACAGUCCGACGAUCUUCAUGUGGAGGAAAUCUUUUGAUGAAUAUUGGGCCCACACUAGAUGGCACCAUUUCUGUAGUUUUUGAGGAGCGACUGAGGCAAAUGGGGUCCUGGCUAAAAGUCAAUGGAGAAGCUAUCAACAGAGGAUUGAGCAUCA
B11: chr17:48058596:48058697:+|CDS|ENSG00000082641|msi1|total|mutant (ssRNA)
RNA: GGGAGUUCUACAGUCCGACGAUCCAAUGGCACAGCCAAUGACACAGCAGGCCCAGAGCUGCCUGACCCUUUGGGGGGUCUGUCCGAUGAAGCUAUGUUGGAUGAGAUCAGCCUUAUGGACCUGGCCAUUGAAGAAGGCUUUAACAACAGAGGAUUGAGCAUCA
B12: ENSG00000136451:be:win_1|CDS|ENSG00000136451|bound_else_gene|NA|bound_elsewhere_windowed (ssRNA)
RNA: GGGAGUUCUACAGUCCGACGAUCAUGGAGGCCAACUGGACCGCGUUCCUGUUCCAGGCCCAUGAAGCUUCCCAUCACCAACAGCAGGCAGCACAGAACAGCUUGCUGCCCCUCCUGAGCUCUGCCGUGGAGCCCCCUGAUCAGCAACAGAGGAUUGAGCAUCA
B13: chr12:16548371:16551327:-|three_prime_utr|ENSG00000048540|control|control|control (ssRNA)
RNA: GGGAGUUCUACAGUCCGACGAUCCAUUCUUUUAUCUUUUUUGCUCCACAUGUACAUAAGAAUUGACACAGGAACCUACUGAAUAGCGUAGAUAUAGGAAGGCAGGAUGGUUAUAUGGAAUAAAAGGCGGACUGCAUCUGUAUGCAACAGAGGAUUGAGCAUCA
B14: chr6:30541380:30546071:-|three_prime_utr|ENSG00000204590|control|control|control (ssRNA)
RNA: GGGAGUUCUACAGUCCGACGAUCCUGACCUGGGGGUAUCUCCCCUCUGCCACCCCAAUUGUGAAUAAAGAUUGUUUGCUUUGUAGCCCCUUCCCCAGAUGAACUGAGGUGAGAGCGGCUGUUCCAGGCUAACAGCUGUGGGAGCAACAGAGGAUUGAGCAUCA

Each binder was assayed against MSI1 full-length (mouse, UniProt Q61474 1-362) (assay: nsRBNS (natural sequence RNA bind-n-seq); RBNS binding buffer (assumed for nsRBNS): 25 mM Tris pH 7.5, 150 mM KCl, 3 mM MgCl2, 0.01% Triton X-100, 500 ug/ml BSA, 20 U/ml SUPERase-In, 4 C; UNK is unkempt and MSI1 is Musashi-1; names of the RNAs are library labels; protein concentration not given here; high values mean tight binding).
Sequence of UniProt Q61474 (Q61474 whole entry): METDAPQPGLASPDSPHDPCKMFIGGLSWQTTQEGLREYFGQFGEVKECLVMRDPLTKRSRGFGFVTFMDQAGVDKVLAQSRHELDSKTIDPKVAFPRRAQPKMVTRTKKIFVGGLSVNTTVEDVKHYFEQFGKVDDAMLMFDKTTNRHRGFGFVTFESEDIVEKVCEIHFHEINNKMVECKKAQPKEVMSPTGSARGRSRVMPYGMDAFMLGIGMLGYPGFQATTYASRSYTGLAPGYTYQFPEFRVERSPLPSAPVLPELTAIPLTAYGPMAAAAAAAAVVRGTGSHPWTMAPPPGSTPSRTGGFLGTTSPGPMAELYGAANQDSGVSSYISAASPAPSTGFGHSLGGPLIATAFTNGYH

Binder | binding signal [enrichment R]
B1 | 3.9
B2 | 1.02
B3 | 0.606
B4 | 0.351
B5 | 0.481
B6 | 0.468
B7 | 0.526
B8 | 0.477
B9 | 1.03
B10 | 0.735
B11 | 0.295
B12 | 0.567
B13 | 11.3
B14 | 0.482
